In PubChem BioAssay AID686970 (National Center for Advancing Translational Sciences (NCATS), 2013):
In all, about 360,000 compounds went through this assay and about 6,000 (1.7%) were called active. The inconclusive results got no clear call from the source; some entries with a clear call stand among them for comparison. The call rests on the fitted dose curve; in most records, active means well fitted cell-killing curve with a large enough effect; inconclusive means small, poorly fitted or top-dose-only effect, or effect the other way; inactive means flat fitted curve, though single readings scatter. No potency is given beside an inconclusive call; the fits are too rough.

test: qHTS for induction of synthetic lethality in tumor cells producing 2HG: qHTS for the HT-1080-NT fibrosarcoma cell line; conditions: HT-1080-NT fibrosarcoma viability, CellTiter-Glo ATP luminescence, 48 h; series mostly up to 46.1 µM;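 further: NT is the 2HG producing partner of a matched IDH1 knockdown line; nearly all actives have a fitted effect of over 55% in size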
How it was run: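 750 cells/well, RPMI + 5% FBS; 2 h settle, compound pin-transfer, 48 h at 37 degrees C. CellTiter-Glo 10 min RT, luminescence. Normalized to DMSO and media-only wells.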
Potency means the concentration at half of the fitted maximal effect; tags describe the fitted curve by direction and shape.

SMILES	Potency
CC(NC(=O)CSc1n[nH]c(N)n1)c1ccccc1 (configuration not stated)	inactive
COC(=O)c1cccc(C23CC4(C2)[C@H](CN(Cc2cccnc2)[C@@H]4c2ccccc2)C3c2ccc(C(F)(F)F)cc2)c1 (some centres not stated)	inactive
CC(C)Oc1ccc(CC2CCC(=O)N(C)C2=O)cc1 (configuration not stated)	inconclusive [rising, single point]
COc1ccc(NC(=O)N2CCN(c3ccc([N+](=O)[O-])cc3)CC2)cc1OC	inactive
Cc1cc(NC(=O)/C=C/C(=O)N(CC(=O)NC2CCCC2)c2ccc(F)cc2)no1	inconclusive [cytotoxic, single point]
Nc1cc(S(=O)(=O)Nc2cc(Cl)ccc2Cl)ccc1N1CCOCC1	inactive
COC(=O)c1ccc(Oc2c(Cl)cccc2[N+](=O)[O-])cc1	inactive
CC1(C(=O)NS(=O)(=O)C2CC2)CCCN(C(=O)c2c(F)cccc2F)C1 (configuration not stated)	inactive
O=C(Nc1ccc2nc(-c3cccnc3)[nH]c2c1)C1CCCCC1	inconclusive [cytotoxic, single point]
Cn1cc(CNC(=O)C2CCC(=O)N(Cc3ccccc3F)C2)cn1 (configuration not stated)	inactive
N=c1n(CCN2CCCCC2)c2ccccc2n1CC(=O)c1ccc(Cl)c(Cl)c1	active: 20.6 µM
CNC(=O)C1C(=S)NC(N)=C(C#N)C1c1ccccc1 (configuration not stated)	inconclusive [cytotoxic, single point]
COc1cc(S(=O)(=O)N2CCOCC2)c(OC)c(S(=O)(=O)N2CCOCC2)c1	inconclusive [cytotoxic, single point]
O=C(Cc1cccs1)Nc1nnc(COc2ccccc2)s1	inconclusive [cytotoxic, partial curve]
CCN(c1ccccc1)S(=O)(=O)c1ccc(C(=O)Nc2ncccc2C)cc1	inactive
COc1cc(OC)cc(C(=O)/C=C2\Sc3ccccc3N2C)c1	inconclusive [rising, partial curve]
CC1(C)CC(=O)C=C(Nc2ccc(O)cc2)C1	inactive
COc1ccc(NC(=O)c2cc(C3CCCCN3C(=O)c3ccc(C#N)cc3)on2)c(C)c1 (configuration not stated)	inconclusive [rising, single point]
N#C/C(=C\C=C\c1ccccc1)c1nc(-c2ccc(Cl)cc2)cs1	inactive
CCCC(=O)Nc1nc(C)c(-c2csc(Nc3ccc(Cl)cc3)n2)s1	inactive
CS(=O)(=O)Nc1cccc(C2=NN(S(=O)(=O)c3ccc(F)cc3)C(c3cccs3)C2)c1 (configuration not stated)	inconclusive [cytotoxic, partial curve, poor fit]
CCOc1ccccc1N1CCN(C(=O)CNC(=O)c2sc3ccccc3c2Cl)CC1	inactive
Cc1oc(S(=O)(=O)N(C)C)cc1C(=O)Nc1ccc(Cl)cc1	inactive
COc1ccc(-c2ccc(C(=O)NCc3ccc(F)c(F)c3)c3occc23)c(C)c1	inconclusive [cytotoxic, single point]

SMILES	Potency
CCC1CCCCN1C(=O)COC(=O)c1cncc(Br)c1 (configuration not stated)	inactive
CC(C)n1nccc1N(Cc1ccc(Br)cc1)S(=O)(=O)c1ccccc1	inconclusive [cytotoxic, partial curve, poor fit]
COc1ccc(-c2noc(CSc3nc(N)cc(=O)[nH]3)n2)cc1	inconclusive [cytotoxic, single point]
N#Cc1ccc(NC(=O)N2CCC(c3nc4c(nnn4Cc4cccc(Cl)c4)c(=O)[nH]3)CC2)cc1	inconclusive [cytotoxic, single point]
COc1ccc(C(=O)NCc2ccc(-c3nc4ccccc4s3)cc2)cc1OC	inconclusive [cytotoxic, single point]
O=c1[nH]c(-c2cccnc2)nc2sc(-c3ccccc3)cc12	inconclusive [cytotoxic, partial curve]
NC(=O)C1CCN(CC(=O)Nc2cccc(C(=O)Nc3cccc(C(F)(F)F)c3)c2)CC1	inactive
COc1ccc(CN(C)Cc2c(O)ccc3cc(Br)ccc23)cc1OC	inactive
Cc1ccc(S(=O)(=O)Nc2cccc3cccnc23)c([N+](=O)[O-])c1	inconclusive [cytotoxic, full curve]
CCN1CCN(CCCNC(=O)CCC(=O)N2CCOc3ccc(Cl)cc32)CC1	inactive
CCN(c1cccc(C)c1)S(=O)(=O)c1c(C)[nH]c(=O)[nH]c1=O	inactive
O=C(C1CCCN(S(=O)(=O)c2ccccc2)C1)N1CCCCCC1 (configuration not stated)	inactive
Cc1ccc(Cc2cnc(N)s2)o1	inconclusive [cytotoxic, partial curve]
C/C=C/c1ccc(OCCCCN2CCC(C)CC2)c(OC)c1	inconclusive [cytotoxic, single point]
O=C(c1cc(COc2cccc(C(F)(F)F)c2)on1)N1C[C@H]2CC[C@H]1C2	inactive
Cc1cc(C)cc(C(=O)NCC(=O)N2CCN(C(c3ccccc3)c3ccccc3)CC2)c1	inconclusive [cytotoxic, single point]
CCOc1ccc(Nc2oc(-c3cccs3)nc2C#N)cc1	inconclusive [cytotoxic, single point]
COc1cccc(NC(=O)CCc2nc(-c3cccs3)no2)c1	active: 7.31 µM
CC(C)(C)c1cc(-c2csc(Nc3ccccc3)[n+]2Cc2ccc(C(=O)O)cc2)cc(C(C)(C)C)c1O	inconclusive [cytotoxic, single point]
Cc1cc(C)cc(NC(=S)NCCSc2ccc(Cl)cc2)c1	inconclusive [cytotoxic, single point]
CC(C)C[C@H]1CNC(=S)N1C[C@H]1CCCN1C[C@H](Cc1ccc(O)cc1)N1C[C@H](CC(C)C)N(CC2CCCCCC2)C1=S	inconclusive [cytotoxic, partial curve]
O=C(NC(=S)Nc1cccc(NC(=S)NC(=O)c2ccco2)n1)c1ccco1	inconclusive [cytotoxic, single point]
COc1cc(C(=O)Nc2cccc3c2CCCC3)cc(OC)c1OC	inactive
